Experimental data taken from PubChem BioAssay AID1460 (National Center for Advancing Translational Sciences (NCATS), 2008).
The campaign covered roughly 270,000 compounds. About 5,800 (2.1%) were called active. Inconclusive means that the source gave no clear call. Such entries were picked first, then a sample of the others. Calls come from the whole dose curve; as a rule, active = well fitted inhibition curve with a large enough effect; inconclusive = small, poorly fitted or top-dose-only effect; inactive = flat fitted curve, though single readings scatter. Potencies beside an inconclusive call are fits to weak or partial responses and may not hold up.
% is set by controls: 0 for no effect and ±100 for the full control effect; potency is the fitted concentration of half-maximal effect; tags give direction and shape of the fitted curve.
Note: nearly all actives have a fitted effect of over 55% in size.

What follows are compounds tested against Microtubule-associated protein tau (Homo sapiens) (UniProt P10636) (assay: qHTS for Inhibitors of Tau Fibril Formation, Thioflavin T Binding). Settings: recombinant tau K18 P301L (four-repeat tau fragment), heparin-induced fibrillization, ThT fluorescence; series mostly up to 57.4 µM.
Chain of UniProt P10636 (P10636 whole entry, looked up, the tested form may be a part): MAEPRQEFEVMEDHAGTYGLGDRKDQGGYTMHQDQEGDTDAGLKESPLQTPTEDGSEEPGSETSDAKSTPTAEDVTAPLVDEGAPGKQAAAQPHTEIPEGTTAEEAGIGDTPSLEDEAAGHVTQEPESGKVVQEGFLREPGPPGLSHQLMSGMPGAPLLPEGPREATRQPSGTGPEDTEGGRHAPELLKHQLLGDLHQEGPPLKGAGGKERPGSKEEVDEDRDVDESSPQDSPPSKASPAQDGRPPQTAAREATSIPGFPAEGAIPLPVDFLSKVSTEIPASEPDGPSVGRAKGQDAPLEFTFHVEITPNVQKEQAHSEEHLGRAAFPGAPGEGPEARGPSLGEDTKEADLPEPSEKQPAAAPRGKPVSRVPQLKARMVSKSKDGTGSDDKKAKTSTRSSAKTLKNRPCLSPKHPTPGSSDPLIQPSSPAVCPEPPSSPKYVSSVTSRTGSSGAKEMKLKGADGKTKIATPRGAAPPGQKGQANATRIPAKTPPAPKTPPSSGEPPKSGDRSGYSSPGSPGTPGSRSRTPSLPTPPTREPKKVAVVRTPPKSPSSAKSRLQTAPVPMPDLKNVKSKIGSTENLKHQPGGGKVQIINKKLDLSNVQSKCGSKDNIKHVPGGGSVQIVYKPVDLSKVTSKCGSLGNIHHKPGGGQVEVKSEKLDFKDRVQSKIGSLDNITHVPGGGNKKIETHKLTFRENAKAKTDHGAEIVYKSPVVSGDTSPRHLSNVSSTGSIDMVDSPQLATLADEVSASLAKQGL
Procedure, shortened: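 Heparin-induced fibrillization of the P301L-mutant K18 repeat-domain fragment of human tau was followed by ThT binding in quantitative high-throughput format.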
`N#CC1=C2SCN(c3ccccc3)CN2C(=O)CC1c1ccccc1Cl` (stereo unspecified) was tested, and the Potency was active: 31.6 µM.
For `CC(C)(C)OC(=O)[C@H](Cc1ccccc1)NC(=O)c1[nH]cnc1C(=O)Nc1ccc(Cl)cc1`, the Potency was “inactive”.
With `C=C(C)C(O)/C=C/CCCCCCC` (stereo unspecified) the activity, negative = inhibition was inactive: -6.77% [at 11.5 µM].
`O=C1Nc2cc(C(=O)N3CCc4ccccc4C3)ccc2S/C1=C\c1ccccc1` was tested, and the Potency was “inactive”.
With `CN(C)/C=C1/C(=O)N(c2ccc([N+](=O)[O-])cc2)N=C1c1ccccc1` the Potency was active: 22.4 µM.
`O=C(NCc1ccccc1Cl)c1ccc2c(c1)ncn2-c1cccc(F)c1` was tested, and the Potency was “inactive”.
`COc1ccc(C(=O)CNc2ccccc2CO)cc1` was tested, and the Potency was inconclusive: 14.1 µM [inhibitor, partial curve].
In the case of `O=S(=O)(CCc1ccccc1)c1nc2ccccc2s1`, the Potency is reported as “inactive”.
For `COC(=O)COn1c(-n2nc(C)cc2C)nc2ccccc2c1=O`, the Potency was “inactive”.
`COc1cccc(-n2ccnc2SCC(=O)Nc2cccc3ccccc23)c1` was tested, and the Potency was “inactive”.
In the case of `Cc1ccc(C)c(CN2CCC(CNC(=O)C(CC(C)C)N3Cc4ccccc4C3=O)CC2)c1` (stereo unspecified), the Potency is reported as “inactive”.
With `COc1ccc(NC(=O)Nc2cccc(-c3noc(C)n3)c2)cc1` the Potency was “inactive”.
`COc1cc(OC)nc(NC(=S)NC(=O)c2ccccc2)n1` was tested, and the Potency was inconclusive: 3.55 µM [inhibitor, single point].
`O=S(=O)(Cc1ccccc1)N1CCC(N2CCN(c3ccccc3)CC2)CC1` was tested, and the Potency was inconclusive: 2.24 µM [inhibitor, full curve].
With `NC(N)=N/N=C/c1cc([N+](=O)[O-])ccc1O` the Potency was inconclusive: 39.8 µM [inhibitor, single point].
With `COc1ccc(C(C)NC(=O)CN(c2cc(OC)ccc2OC)S(=O)(=O)c2ccccc2)cc1` (stereo unspecified) the Potency was inconclusive: 4.47 µM [inhibitor, partial curve].
For `CCN1CCCC1CNC(=O)c1cc2c(-c3ccc(Cl)cc3)nn(C)c2s1` (stereo unspecified), the Potency was “inactive”.
`O=P1(O)Oc2c(c(-c3ccccc3)cc3ccccc23)-c2c(-c3ccccc3)cc3ccccc3c2O1` was tested, and the Potency was “inactive”.
For `CC1=NN(c2nc(-c3ccc(C)cc3)cs2)C(=O)C1N=Nc1ccc(C(N)=O)cc1` (stereo unspecified), the Potency was active: 2.82 µM.
With `NS(=O)(=O)c1cccc(NC(=O)COC(=O)/C=C/c2ccco2)c1` the Potency was inconclusive: 11.2 µM [inhibitor, partial curve, poor fit].
For `COc1ccccc1C(=O)Nc1nsc(-c2ccccc2)n1`, the Potency was inconclusive: 12.6 µM [inhibitor, partial curve, poor fit].
In the case of `O=C(Nc1cccnc1)c1cc2cc(Br)ccc2oc1=O`, the Potency is reported as inconclusive: 14.1 µM [inhibitor, partial curve].
With `CCOC(=O)CSc1nnc(CNC(=O)c2ccco2)n1-c1ccc(F)cc1` the Potency was inconclusive: 0.355 µM [inhibitor, full curve].
In the case of `Cc1nc(-c2cccc(F)c2)sc1CCNC(=O)Cc1ccc(F)cc1`, the Potency is reported as “inactive”.
With `CCC(=O)NC1=C(NC(C)c2ccccc2)C(=O)c2ccccc2C1=O` (stereo unspecified) the Potency was inconclusive: 39.8 µM [inhibitor, single point].
With `N#C/C(=C/c1ccc(O)cc1)c1nc(-c2ccc(-c3ccccc3)cc2)cs1` the Potency was inconclusive: 2.24 µM [inhibitor, full curve].
In the case of `COC(=O)c1ccc(CSc2nc3ccccc3c(=O)n2Cc2ccco2)o1`, the Potency is reported as “inactive”.
For `O=C(Cn1ncc(Cl)c(Cl)c1=O)NC1CCS(=O)(=O)C1` (stereo unspecified), the Potency was inconclusive: 15.8 µM [inhibitor, partial curve].
`CCCC1(C(=O)OC)C=C2C(=C(C)C(=O)C2C)CN1` (stereo unspecified) was tested, and the Potency was inconclusive: 28.2 µM [inhibitor, single point].
With `O=C(Nc1ccc(F)cc1)c1nc(SCc2ccccc2F)ncc1Cl` the Potency was “inactive”.
For `O=C(c1cc(-c2ccco2)on1)N1CCc2ccccc2C1`, the Potency was inconclusive: 20 µM [inhibitor, partial curve].
`COc1ccccc1CNC(=O)COC(=O)c1cc(-c2ccco2)nc2ccccc12` was tested, and the Potency was inconclusive: 12.6 µM [inhibitor, partial curve].
For `C=CCc1ccc(OCCOc2cccc3cccnc23)c(OC)c1`, the Potency was inconclusive: 17.8 µM [inhibitor, partial curve].
In the case of `N#CC1=C2SCCN2C(=O)C(C#N)C12CCCCC2` (stereo unspecified), the Potency is reported as “inactive”.
For `CCCCC(=O)NC(=S)Nc1cccc(NC(=O)CC)c1`, the Potency was “inactive”.
In the case of `COc1ccc(OCC(=O)N/N=C/c2ccsc2)cc1`, the Potency is reported as “inactive”.
For `CSC(=NC#N)N1CCN(c2cccc(Cl)c2)CC1`, the Potency was inconclusive: 1.41 µM [inhibitor, full curve].
In the case of `S=c1[nH]nc(Nc2cccc(Cl)c2)s1`, the Potency is reported as inconclusive: 28.2 µM [inhibitor, single point].
With `COc1ccc(CCNC(=O)c2ccncc2)cc1OC` the Potency was “inactive”.
In the case of `CCCSC1=NC2(CCN(C(=O)NC3CCCCC3)CC2)N=C1c1ccc(OC)cc1`, the Potency is reported as “inactive”.
With `COc1cc(S(=O)(=O)Nc2ccccc2C)ccc1Cl` the Potency was “inactive”.
For `O=C(CSc1nnnn1-c1ccc(F)cc1)c1ccc(O)c(O)c1`, the Potency was inconclusive: 35.5 µM [inhibitor, partial curve].
In the case of `O=C(NC1CCCCC1)c1ccc2c(c1)N(Cc1ccc(F)cc1)C(=O)c1ccccc1S2(=O)=O`, the Potency is reported as inconclusive: 44.7 µM [inhibitor, single point].
For `COc1cccc(CNC(=O)Cn2c(=O)cc(C)c3c(C)nn(C)c32)c1OC`, the Potency was “inactive”.
In the case of `CC(C)NC(=O)NC(=O)COc1ncnc2sccc12`, the Potency is reported as “inactive”.
For `COc1cccc(CNC(=O)CN(c2ccc(C)cc2)S(=O)(=O)N(C)C)c1OC`, the Potency was “inactive”.
For `Cc1noc(COc2ccc(OCc3nc(C)no3)cc2)n1`, the Potency was inconclusive: 22.4 µM [inhibitor, partial curve, poor fit].
For `Cc1ccc(N/C=C(/C#N)c2ccsc2)cc1`, the Potency was inconclusive: 7.08 µM [inhibitor, partial curve].
`COc1cccc(-c2nc3c(C#N)c[nH]n3c2NC2CCCCC2)c1` was tested, and the Potency was “inactive”.
`COc1ccc(-c2csc3ncnc(Nc4ccc(OC)cc4OC)c23)cc1` was tested, and the Potency was inconclusive: 5.01 µM [inhibitor, full curve, poor fit].
For `Cc1ccc(C)c(N=Nc2ccc(O)c3ncccc23)c1`, the Potency was inconclusive: 3.55 µM [inhibitor, partial curve].
